Experimental data published in patent publication US20180015075A1, “METHODS AND COMPOSITIONS FOR TREATMENT OF VENOUS MALFORMATION” (Children's Hospital Medical Center, priority 2016, published 2018).

How the values were obtained:
[1] = test system: HUVEC-TIE2-WT; test: cells; conditions: Homo sapiens, read-out: Average proliferation Inhibition rate (%) WT
[2] = test system: HUVEC-TIE2-L914F; test: cells; conditions: Homo sapiens, read-out: Average proliferation Inhibition rate (%) L914F

Compound | inhibition at 20 µM [1] | inhibition at 20 µM [2]
C[C@@H](CN1CC(=O)NC(=O)C1)N1CC(=O)NC(=O)C1 [Dexrazoxane] | 5.76% | 10.8%
CC(=O)O[C@@]12CO[C@@H]1C[C@H](O)[C@@]1(C)C(=O)[C@H](O)C3=C(C)[C@@H](OC(=O)[C@H](O)[C@@H](NC(=O)OC(C)(C)C)c4ccccc4)C[C@@](O)([C@@H](OC(=O)c4ccccc4)[C@H]21)C3(C)C [Docetaxel] | 31.5% | 18.4%
COc1cccc2c1C(=O)c1c(O)c3c(c(O)c1C2=O)C[C@@](O)(C(=O)CO)C[C@@H]3O[C@H]1C[C@H](N)[C@H](O)[C@H](C)O1 [Doxorubicin hydrochloride] | 55.4% | 64.5%
CNC(=O)c1ccc(N2C(=S)N(c3ccc(C#N)c(C(F)(F)F)c3)C(=O)C2(C)C)cc1F [Enzalutamide] | 66.5% | 80.9%
COc1cccc2c1C(=O)c1c(O)c3c(c(O)c1C2=O)C[C@@](O)(C(=O)CO)C[C@@H]3O[C@H]1C[C@H](N)[C@@H](O)[C@H](C)O1 [Epirubicin hydrochloride] | 54.7% | 64.7%
C#Cc1cccc(Nc2ncnc3cc(OCCOC)c(OCCOC)cc23)c1 [Erlotinib hydrochloride] | 25.5% | 10.7%
C[C@]12CC[C@@H]3c4ccc(OC(=O)N(CCCl)CCCl)cc4CC[C@H]3[C@@H]1CC[C@@H]2OP(=O)(O)O [Estramustine phosphate sodium] | -3.54% | -2.46%
COc1cc([C@@H]2c3cc4c(cc3[C@@H](O[C@@H]3O[C@@H]5CO[C@@H](C)O[C@H]5[C@H](O)[C@H]3O)[C@H]3COC(=O)[C@H]23)OCO4)cc(OC)c1O [Etoposide] | 26.5% | 34.6%
C=C1C[C@@H]2[C@H](CC[C@]3(C)C(=O)CC[C@@H]23)[C@@]2(C)C=CC(=O)C=C12 [Exemestane] | -4.29% | 6.56%
O=c1[nH]c(=O)n([C@H]2C[C@H](O)[C@@H](CO)O2)cc1F [Floxuridine] | 10.7% | 19.6%
Nc1nc(F)nc2c1ncn2[C@@H]1O[C@H](COP(=O)(O)O)[C@@H](O)[C@@H]1O [Fludarabine phosphate] | -2.3% | 1.21%
O=c1[nH]cc(F)c(=O)[nH]1 [Fluorouracil] | 16.4% | 32.7%
C[C@]12CC[C@@H]3c4ccc(O)cc4C[C@@H](CCCCCCCCC[S+]([O-])CCCC(F)(F)C(F)(F)F)[C@H]3[C@@H]1CC[C@@H]2O (stereo partly drawn) [Fulvestrant] | -2.52% | 3.89%
Nc1ccn([C@@H]2O[C@H](CO)[C@@H](O)C2(F)F)c(=O)n1 [Gemcitabine hydrochloride] | 37.4% | 52.7%
NC(=O)NO [Hydroxyurea] | -1.53% | -2.83%
C=CC(=O)N1CCC[C@@H](n2nc(-c3ccc(Oc4ccccc4)cc3)c3c(N)ncnc32)C1 [Ibrutinib] | 25.8% | 24.5%
CC(=O)[C@]1(O)Cc2c(O)c3c(c(O)c2[C@@H](O[C@H]2C[C@H](N)[C@H](O)[C@H](C)O2)C1)C(=O)c1ccccc1C3=O [Idarubicin hydrochloride] | -4.82% | 3.36%
CC[C@H](Nc1ncnc2[nH]cnc12)c1nc2cccc(F)c2c(=O)n1-c1ccccc1 [Idelalisib] | 36.2% | 23.4%
O=P1(NCCCl)OCCCN1CCCl (stereo not drawn) [Ifosfamide] | -0.66% | 4.47%
CC(C)Cn1cnc2c(N)nc3ccccc3c21 [Imiquimod] | -3.32% | 2.68%
CCc1c2c(nc3ccc(OC(=O)N4CCC(N5CCCCC5)CC4)cc13)-c1cc3c(c(=O)n1C2)COC(=O)[C@]3(O)CC [Irinotecan hydrochloride] | 19.4% | 22.3%
C/C(=C\c1csc(C)n1)[C@@H]1C[C@@H]2O[C@]2(C)CCC[C@H](C)[C@H](O)[C@@H](C)C(=O)C(C)(C)[C@@H](O)CC(=O)N1 [Ixabepilone] | 60.2% | 79.7%
CS(=O)(=O)CCNCc1ccc(-c2ccc3ncnc(Nc4ccc(OCc5cccc(F)c5)c(Cl)c4)c3c2)o1 [Lapatinib] | -3.81% | 6.44%
Nc1cccc2c1CN(C1CCC(=O)NC1=O)C2=O (stereo not drawn) [Lenalidomide] | -2.09% | 4.46%
N#Cc1ccc(C(c2ccc(C#N)cc2)n2cncn2)cc1 [Letrozole] | -0.85% | 6.07%
O=NN(CCCl)C(=O)NC1CCCCC1 [Lomustine] | 11.4% | 12%
COC(=O)C[C@](O)(CCCC(C)(C)O)C(=O)O[C@@H]1C(OC)=C[C@]23CCCN2CCc2cc4c(cc2[C@H]13)OCO4 [Omacetaxine-mepesuccinate] | 67.6% | –
CCN(CC)CCNC(=O)c1c(C)[nH]c(/C=C2\C(=O)Nc3ccc(F)cc32)c1C [Sunitinib] | 38.5% | –

Counter-ions that a name gives are not always drawn.
